According to patent US9024027B2, “Derivatives of 1-phenyl-2-pyridinyl alkyl alcohols as phosphodiesterase inhibitors” (Chiesi Farmaceutici S.p.A., priority 2011, dated 2015):
Some of these results come from one statement about several compounds together. For some of these results: At least one structure is not confirmed: it was looked up by name or label, or the drawing left a doubt.

Assays:
[1] = In vitro determination of intrinsic clearance in human hepatic microsomes; settings: 1 μM test compound
[2] = tested on: PDE4; assay: In vitro determination of PDE4 inhibitory activity in the cell free assay (cAMP disappearance, U937 cell lysate supernatant); assay type: biochemical; settings: U937 human monocytic cell lysate supernatant, read-out: PDE4 inhibition (IC50, 50% inhibition of cAMP disappearance)

Structure (SMILES)	intrinsic Clearance [1] [mL/min/g]	IC50 [2] [nM]
CS(=O)(=O)N(CCN1CCCC1)c1ccc2c(c1)C(=O)N(CC(=O)O[C@@H](Cc1c(Cl)c[n+]([O-])cc1Cl)c1ccc(OC(F)F)c(OCC3CC3)c1)C2=O [Compound 183]	> 15	< 0.1
O=C(CN1C(=O)c2cccc(OCC3CC3)c2C1=O)O[C@@H](Cc1c(Cl)c[n+]([O-])cc1Cl)c1ccc(OC(F)F)c(OCC2CC2)c1 [Compound 69]	> 15	0.1 to 1
O=C(Cn1c(=O)c2ccccc2n(CCN2CCOCC2)c1=O)O[C@@H](Cc1c(Cl)c[n+]([O-])cc1Cl)c1ccc(OC(F)F)c(OCC2CC2)c1 [Compound 39]	> 15	< 0.1
CS(=O)(=O)N(CCN1CCOCC1)Cc1ccc2c(c1)C(=O)N(CC(=O)O[C@@H](Cc1c(Cl)c[n+]([O-])cc1Cl)c1ccc(OC(F)F)c(OCC3CC3)c1)C2=O [Compound 258, (S)-3,5-dichloro-4-(2-(3-(cyclopropylmethoxy)-4-(difluoromethoxy)phenyl)-2-(2-(5-((N-(2-morpholinoethyl)methylsulfonamido)methyl)-1,3-dioxoisoindolin-2-yl)acetoxy)ethyl)pyridine 1-oxide]	> 15	< 0.1
COc1cc2c(cc1OC)C(=O)N(CC(=O)O[C@@H](Cc1c(Cl)c[n+]([O-])cc1Cl)c1ccc(OC(F)F)c(OCC3CC3)c1)C2=O [Compound 156, (S)-3,5-dichloro-4-(2-(3-(cyclopropylmethoxy)-4-(difluoromethoxy)phenyl)-2-(2-(5,6-dimethoxy-1,3-dioxoisoindolin-2-yl)acetoxy)ethyl)pyridine 1-oxide]	> 15	< 0.1
CS(=O)(=O)N(CCn1ccnc1)c1ccc2c(c1)C(=O)N(CC(=O)O[C@@H](Cc1c(Cl)c[n+]([O-])cc1Cl)c1ccc(OC(F)F)c(OCC3CC3)c1)C2=O [Compound 217]	> 15	< 0.1
Nc1cccc2c1C(=O)N(CC(=O)O[C@@H](Cc1c(Cl)c[n+]([O-])cc1Cl)c1ccc(OC(F)F)c(OCC3CC3)c1)C2=O [Compound 12, (S)-4-(2-(2-(4-amino-1,3-dioxoisoindolin-2-yl)acetoxy)-2-(3-(cyclopropylmethoxy)-4-(difluoromethoxy)phenyl)ethyl)-3,5-dichloropyridine 1-oxide]	> 15	–
CS(=O)(=O)Nc1cccc2c1C(=O)N(CC(=O)O[C@@H](Cc1c(Cl)c[n+]([O-])cc1Cl)c1ccc(OC(F)F)c(OCC3CC3)c1)C2=O [Compound 162, (S)-3,5-dichloro-4-(2-(3-(cyclopropylmethoxy)-4-(difluoromethoxy)phenyl)-2-(2-(4-(methylsulfonamido)-1,3-dioxoisoindolin-2-yl)acetoxy)ethyl)pyridine 1-oxide]	> 15	< 0.1
CS(=O)(=O)N(CC(=O)N1CCOCC1)c1ccc2c(c1)C(=O)N(CC(=O)O[C@@H](Cc1c(Cl)c[n+]([O-])cc1Cl)c1ccc(OC(F)F)c(OCC3CC3)c1)C2=O [Compound 192]	> 15	< 0.1
COc1cc2c(cc1OC)CN(CC(=O)O[C@@H](Cc1c(Cl)c[n+]([O-])cc1Cl)c1ccc(OC(F)F)c(OCC3CC3)c1)CC2 [Compound 105, (S)-3,5-dichloro-4-(2-(3-(cyclopropylmethoxy)-4-(difluoromethoxy)phenyl)-2-(2-(6,7-dimethoxy-3,4-dihydroisoquinolin-2(1H)-yl)acetoxy)ethyl)pyridine 1-oxide]	> 15	–
O=C(CN1C(=O)c2cccc(NO)c2C1=O)O[C@@H](Cc1c(Cl)c[n+]([O-])cc1Cl)c1ccc(OC(F)F)c(OCC2CC2)c1 [Compound 170]	–	< 0.1
CS(=O)(=O)N(Cc1cccs1)c1ccc2c(c1)C(=O)N(CC(=O)O[C@@H](Cc1c(Cl)c[n+]([O-])cc1Cl)c1ccc(OC(F)F)c(OCC3CC3)c1)C2=O [Compound 205, (S)-3,5-dichloro-4-(2-(3-(cyclopropylmethoxy)-4-(difluoromethoxy)phenyl)-2-(2-(1,3-dioxo-5-(N-(thiophen-2-ylmethyl)methylsulfonamido)isoindolin-2-yl)acetoxy)ethyl)pyridine 1-oxide]	–	0.1 to 1
CN(C)S(=O)(=O)c1ccc2c(c1)C(=O)C(=O)N2CC(=O)O[C@@H](Cc1c(Cl)c[n+]([O-])cc1Cl)c1ccc(OC(F)F)c(OCC2CC2)c1 [Compound 151, (S)-3,5-dichloro-4-(2-(3-(cyclopropylmethoxy)-4-(difluoromethoxy)phenyl)-2-(2-(5-(N,N-dimethylsulfamoyl)-2,3-dioxoindolin-1-yl)acetoxy)ethyl)pyridine 1-oxide]	–	< 0.1
Cn1cnc2c1c(=O)n(CC(=O)O[C@@H](Cc1c(Cl)c[n+]([O-])cc1Cl)c1ccc(OC(F)F)c(OCC3CC3)c1)c(=O)n2C [Compound 20]	–	< 0.1
CS(=O)(=O)Nc1ccc2ccn(CC(=O)O[C@@H](Cc3c(Cl)c[n+]([O-])cc3Cl)c3ccc(OC(F)F)c(OCC4CC4)c3)c2c1 [Compound 77]	–	< 0.1
O=C(Cn1c(=O)oc2ccccc21)O[C@@H](Cc1c(Cl)c[n+]([O-])cc1Cl)c1ccc(OC(F)F)c(OCC2CC2)c1 [Compound 24]	–	< 0.1

Structure (SMILES)	intrinsic Clearance [1] [mL/min/g]	IC50 [2] [nM]
COCCN(c1ccc2c(c1)C(=O)N(CC(=O)O[C@@H](Cc1c(Cl)c[n+]([O-])cc1Cl)c1ccc(OC(F)F)c(OCC3CC3)c1)C2=O)S(C)(=O)=O [Compound 202]	–	< 0.1
CS(=O)(=O)N(Cc1nccs1)c1ccc2c(c1)C(=O)N(CC(=O)O[C@@H](Cc1c(Cl)c[n+]([O-])cc1Cl)c1ccc(OC(F)F)c(OCC3CC3)c1)C2=O [Compound 201]	–	< 0.1
CS(=O)(=O)N(Cc1ccc(C(F)(F)F)nc1)c1ccc2c(c1)C(=O)N(CC(=O)O[C@@H](Cc1c(Cl)c[n+]([O-])cc1Cl)c1ccc(OC(F)F)c(OCC3CC3)c1)C2=O [Compound 196]	–	0.1 to 1
CN(C)CCN(c1ccc2c(c1)C(=O)N(CC(=O)O[C@@H](Cc1c(Cl)c[n+]([O-])cc1Cl)c1ccc(OC(F)F)c(OCC3CC3)c1)C2=O)S(C)(=O)=O [Compound 208, (S)-3,5-dichloro-4-(2-(3-(cyclopropylmethoxy)-4-(difluoromethoxy)phenyl)-2-(2-(5-(N-(2-(dimethylamino)ethyl)-methylsulfonamido)-1,3-dioxoisoindolin-2-yl)acetoxy)ethyl)pyridine 1-oxide]	–	< 0.1
COc1ccc2c(c1)CC(=O)N2CC(=O)O[C@@H](Cc1c(Cl)c[n+]([O-])cc1Cl)c1ccc(OC(F)F)c(OCC2CC2)c1 [Compound 117, (S)-3,5-dichloro-4-(2-(3-(cyclopropylmethoxy)-4-(difluoromethoxy)phenyl)-2-(2-(5-methoxy-2-oxoindolin-1-yl)acetoxy)-ethyl)pyridine 1-oxide]	–	0.1 to 1
CS(=O)(=O)N(Cc1ccncc1)c1ccc2c(c1)C(=O)N(CC(=O)O[C@@H](Cc1c(Cl)c[n+]([O-])cc1Cl)c1ccc(OC(F)F)c(OCC3CC3)c1)C2=O [Compound 185]	–	< 0.1
COc1ccc2c(c1)C(=O)C(=O)N2CC(=O)O[C@@H](Cc1c(Cl)c[n+]([O-])cc1Cl)c1ccc(OC(F)F)c(OCC2CC2)c1 [Compound 57, (S)-3,5-dichloro-4-(2-(3-(cyclopropylmethoxy)-4-(difluoromethoxy)phenyl)-2-(2-(5-methoxy-2,3-dioxoindolin-1-yl)acetoxy)ethyl)-pyridine 1-oxide]	–	0.1 to 1
CS(=O)(=O)Nc1ccc2c(c1)CCN2CC(=O)O[C@@H](Cc1c(Cl)c[n+]([O-])cc1Cl)c1ccc(OC(F)F)c(OCC2CC2)c1 [Compound 131, (S)-3,5-dichloro-4-(2-(3-(cyclopropylmethoxy)-4-(difluoromethoxy)phenyl)-2-(2-(5-(methylsulfonamido)indolin-1-yl)acetoxy)-ethyl)pyridine 1-oxide]	–	< 0.1
O=C(CN1C(=O)C(=O)c2cc(F)c(F)cc21)O[C@@H](Cc1c(Cl)c[n+]([O-])cc1Cl)c1ccc(OC(F)F)c(OCC2CC2)c1 [Compound 59]	–	0.1 to 1
CS(=O)(=O)Nc1cn(CC(=O)O[C@@H](Cc2c(Cl)c[n+]([O-])cc2Cl)c2ccc(OC(F)F)c(OCC3CC3)c2)c2ccccc12 [Compound 93, (S)-3,5-dichloro-4-(2-(3-(cyclopropylmethoxy)-4-(difluoromethoxy)phenyl)-2-(2-(3-(methylsulfonamido)-1H-indol-1-yl)acetoxy)ethyl)pyridine 1-oxide]	–	< 0.1
CS(=O)(=O)Nc1ccc2c(c1)CC(=O)N2CC(=O)O[C@@H](Cc1c(Cl)c[n+]([O-])cc1Cl)c1ccc(OC(F)F)c(OCC2CC2)c1 [Compound 112, (S)-3,5-dichloro-4-(2-(3-(cyclopropylmethoxy)-4-(difluoromethoxy)phenyl)-2-(2-(5-(methylsulfonamido)-2-oxoindolin-1-yl)acetoxy)ethyl)pyridine 1-oxide]	–	< 0.1
O=C(CN1C(=O)Cc2ccccc2C1=O)O[C@@H](Cc1c(Cl)c[n+]([O-])cc1Cl)c1ccc(OC(F)F)c(OCC2CC2)c1 [Compound 263, (S)-3,5-dichloro-4-(2-(3-(cyclopropylmethoxy)-4-(difluoromethoxy)phenyl)-2-(2-(1,3-dioxo-3,4-dihydroisoquinolin-2(1H)-yl)acetoxy)ethyl)pyridine 1-oxide]	–	0.1 to 1
O=C(CN1C(=O)C(=O)c2cc([N+](=O)[O-])ccc21)O[C@@H](Cc1c(Cl)c[n+]([O-])cc1Cl)c1ccc(OC(F)F)c(OCC2CC2)c1 [Compound 26]	–	< 0.1
CN1CCN(CCN(c2ccc3c(c2)C(=O)N(CC(=O)O[C@@H](Cc2c(Cl)c[n+]([O-])cc2Cl)c2ccc(OC(F)F)c(OCC4CC4)c2)C3=O)S(C)(=O)=O)CC1 [Compound 213, (S)-3,5-Dichloro-4-(2-(3-(cyclopropylmethoxy)-4-(difluoromethoxy)-phenyl)-2-(2-(5-(N-(2-(4-methylpiperazin-1-yl)ethyl)methylsulfonamido)-1,3-dioxoisoindolin-2-yl)acetoxy)ethyl)pyridine 1-oxide]	–	< 0.1
N#Cc1ccc2c(ccn2CC(=O)O[C@@H](Cc2c(Cl)c[n+]([O-])cc2Cl)c2ccc(OC(F)F)c(OCC3CC3)c2)c1 [Compound 27]	–	< 0.1
CS(=O)(=O)N(Cc1ncccn1)c1ccc2c(c1)C(=O)N(CC(=O)O[C@@H](Cc1c(Cl)c[n+]([O-])cc1Cl)c1ccc(OC(F)F)c(OCC3CC3)c1)C2=O [Compound 199]	–	< 0.1
